# Assay results from PubChem BioAssay AID1345082 (National Center for Advancing Translational Sciences (NCATS), 2018).
# In all, about 94,000 compounds went through this assay and about 4,000 (4.3%) were called active. This list was built around the results that the source calls inconclusive (neither active nor inactive); the mix of calls is not that of the screen. Calls come from the whole dose curve; as a rule, active = well fitted inhibition curve with a large enough effect; inconclusive = small, poorly fitted or top-dose-only effect; inactive = no such curve, though single readings can be large or run the other way. Potencies beside an inconclusive call are fits to weak or partial responses and may not hold up.
# Test: Cytotoxic Profiling in NIH 3T3 Cell Line of Diverse Libraries Using Quantitative High-Throughput Screening; note: nearly all actives have a fitted effect of over 55% in size
# Settings: NIH 3T3 viability, CellTiter-Glo ATP luminescence, 48-72 h; activity change, negative = cytotoxicity: at 96.7 µM (top of the series); series mostly up to 96.7 µM
# Summary of the method: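 ATP-dependent luminescence (CellTiter-Glo) served as the viability signal for NIH 3T3 cells treated with compound for 48 or 72 hr at 37 °C.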
# % is set by controls: 0 for no effect and ±100 for the full control effect; potency is the fitted concentration of half-maximal effect; tags give direction and shape of the fitted curve.
SMILES,Potency,"activity change, negative = cytotoxicity"
Cc1cccc(-c2cc(C3CCN(S(=O)(=O)c4ccc(C#N)cc4)CC3)[nH]n2)c1,active: 14.1 µM,–
Nc1ccc(-c2ccc(OCCn3ccnc3)cc2)cn1,"inconclusive: 22.4 µM [inhibitor, full curve, poor fit]",–
COc1ccc(CC2CCOC3(CCN(C(=O)c4ccc(C)s4)CC3)C2)cc1 (stereo not given),"inconclusive: 44.7 µM [inhibitor, partial curve, poor fit]",–
COCCNC(=O)c1nc2c(o1)CCN(Cc1ccc(F)c(Cl)c1)CC2,"inconclusive: 89.1 µM [inhibitor, partial curve]",–
COC(=O)c1cccc(NC(=O)c2cnc(-c3ccc(F)cc3)nc2-c2ccncc2)c1,"inconclusive: 44.7 µM [inhibitor, partial curve, poor fit]",–
COc1ccc(CC(=O)N2CCc3nc(C)nc(-c4ccc(Cl)cc4)c3CC2)cc1,"inconclusive: 56.2 µM [inhibitor, partial curve, poor fit]",–
O=C(c1ccc(Cl)nc1)N1CCN(C(=O)c2nc3cccnc3n(CCc3ccccc3)c2=O)CC1,–,inactive: -20.2%
COc1ccccc1CN1CCC(CN(CC(C)C)C(=O)C2C=CCN2)CC1 (stereo not given),–,inactive: -4.65%
O=C(CCC1CCCN(S(=O)(=O)c2ccccc2)C1)NCC1CC1 (stereo not given),–,inactive: -8.53%
COc1ccccc1-c1ccc(C(=O)N2CCC(C(=O)N3CCCC3)CC2)cc1,–,inactive: -17.8%
O=C(NCC1CC1)c1cn(C2CN(C(=O)NCc3ccccc3)C2)nn1,–,inactive: 3.95%
COc1cccc(CN2CCc3c(cc(C(=O)Nc4ccccc4)n3C)C2)c1,"inconclusive: 44.7 µM [inhibitor, partial curve, poor fit]",–
COc1ccc(N2CCOC3CCN(Cc4cccc(Cl)c4)CC3C2=O)cc1 (stereo not given),"inconclusive: 89.1 µM [inhibitor, partial curve, poor fit]",–
CCc1ccc(-n2nnnc2N2CCN(C(=O)Nc3ccc(C)c(F)c3)CC2)cc1,"inconclusive: 50.1 µM [inhibitor, partial curve, poor fit]",–
CCOCCN1C(=O)COC[C@@H]1[C@H](O)c1ccc(NC(=O)CC(C)(C)C)cc1,–,inactive: -8.01% [at 138 µM]
O=C1COc2ccc(-c3ccncc3)nc2CN1Cc1ccccc1F,active: 89.1 µM,–
Cc1noc(C)c1S(=O)(=O)N1CC[C@@H]2C(=O)NCCCCCCN(Cc3ccncc3)[C@@H]2C1,–,inactive: -6.62%
CN(Cc1noc(C2CCCC2)n1)c1cc(C2CC(O)C2)ncn1 (stereo not given),"inconclusive: 14.1 µM [inhibitor, partial curve, poor fit]",–
COc1cc2nc(-c3cc4c(c(OC)c3)OCCNC4)cc(C)c2cc1OC,"inconclusive: 44.7 µM [inhibitor, partial curve, poor fit]",–
O=C(c1ccoc1)N1CCc2onc(C(c3ccccc3)c3ccccc3)c2C1,"inconclusive: 50.1 µM [inhibitor, partial curve, poor fit]",–

SMILES,Potency,"activity change, negative = cytotoxicity"
Cc1nc(CNC(=O)c2csc(-c3ccc(C(F)(F)F)cc3)n2)no1,"inconclusive: 79.4 µM [inhibitor, partial curve, poor fit]",–
COc1ccc(CCNc2ncnc3c2CN(c2ccc(Cl)cc2)C(=O)N(C)C3)cc1,"inconclusive: 50.1 µM [inhibitor, partial curve, poor fit]",–
O=C(Nc1cccc(C(F)(F)F)c1)O[C@@H]1CO[C@H]2[C@@H]1OC[C@@H]2NC(=S)NC1CCCCC1,"inconclusive: 50.1 µM [inhibitor, partial curve, poor fit]",–
COc1ccc(Nc2ccnc(N3CCCC(C(=O)NCCc4ccc(Cl)cc4)C3)n2)cc1 (stereo not given),"inconclusive: 15.8 µM [inhibitor, full curve, poor fit]",–
Cc1nn(CCNC(=O)c2cn(CCN)nn2)c(C)c1Cl,–,inactive: -8.82%
COc1ccc(-c2[nH]ncc2C(=O)NC2CCCc3c2[nH]c2ccccc32)cc1 (stereo not given),"inconclusive: 28.2 µM [inhibitor, full curve]",–
Cc1nn(-c2ccccc2)c2c1C(C)N(C1CN(C(=O)Nc3ccc(Cl)cc3)C1)C2=O (stereo not given),"inconclusive: 14.1 µM [inhibitor, full curve, poor fit]",–
O=C(NC1CC1)c1nc(-c2ccc(Cl)cc2Cl)c2ccccn12,"inconclusive: 50.1 µM [inhibitor, partial curve, poor fit]",–
C=CCOc1c(OC)ccc2c1CN(Cc1ccccc1)C(=O)CCN2CC(C)O (stereo not given),"inconclusive: 35.5 µM [inhibitor, partial curve, poor fit]",–
O=C(NC1CCCN(c2cc(-c3ccccc3)[nH]n2)C1)c1ccc(C(F)(F)F)cc1 (stereo not given),"inconclusive: 50.1 µM [inhibitor, partial curve, poor fit]",–
CN(C)c1ccc(CN2CCn3c(nn(-c4ccc(Cl)cc4)c3=O)C2)cc1,–,inactive: -23.9%
Cc1noc(C)c1-c1cc(-c2cnn(C)c2)cn2cncc12,"inconclusive: 89.1 µM [inhibitor, single point]",–
COc1ccccc1-c1nc(C2CC(=O)N(c3ccc(F)c(Cl)c3)C2)no1 (stereo not given),"inconclusive: 25.1 µM [inhibitor, full curve]",–
O=C(Nc1ccc(F)cc1F)N1CCOC[C@H](Oc2ccc(C(F)(F)F)cc2)C1,"inconclusive: 126 µM [inhibitor, single point]",–
O=C(Nc1ccc2c(c1)CN(Cc1ccccc1F)C(=O)CO2)c1ccc(Cl)cc1,"inconclusive: 31.6 µM [inhibitor, partial curve]",–
CC(=O)NC1(C)CCCN(Cc2cccc(Nc3ccncc3)c2)C1 (stereo not given),"inconclusive: 100 µM [inhibitor, partial curve, poor fit]",–
COc1ccc(CCC(=O)N2CCCC(n3cc(-c4nc(-c5ccccc5)no4)nn3)C2)cc1 (stereo not given),"inconclusive: 31.6 µM [inhibitor, partial curve]",–
Cc1nn(-c2ccccc2)c2c1C(C(C)C)N(C1CCN(C(=O)N(C)C)C1)C2=O (stereo not given),"inconclusive: 44.7 µM [inhibitor, partial curve, poor fit]",–
O=C1N(C2CCNCC2)C(c2ccccc2)C12CCCCC2 (stereo not given),–,inactive: -1.93%
C[C@@H](c1ccccc1)N(C)C(=O)c1cc(COc2cccc(F)c2)[nH]n1,"inconclusive: 50.1 µM [inhibitor, partial curve, poor fit]",–
